In PubChem BioAssay AID2202238 (Ras Initiative Chemistry Research Team, Frederick National …, 2025):
Some of the results follow. Further columns of the screen follow, without active or inactive calls.

Biological target: GTPase KRas (Homo sapiens) (UniProt P01116)
Assay: Cysteine mutants labelled by reactive fragments (mass read-out) (AID 2202238)
Parameters: protein at 5 µM with 500 µM competing thiol for 1.5 h
Conditions: KRAS G12D cysteine mutants, disulfide tethering, MALDI-TOF labeling, stronger effect = higher value, fragment at 500 µM
[1] = measured here: G60C mutant labeling
[2] = measured here: G75C mutant labeling
[3] = measured here: H94C mutant labeling
[4] = measured here: I36C mutant labeling
[5] = measured here: L120C mutant labeling
[6] = measured here: M67C mutant labeling
[7] = measured here: M72C mutant labeling
[8] = measured here: N26C mutant labeling
[9] = measured here: N86C mutant labeling
[10] = measured here: P121C mutant labeling
[11] = measured here: S122C mutant labeling
[12] = measured here: S136C mutant labeling

Chain of UniProt P01116 (P01116 whole entry, looked up, the tested form may be a part): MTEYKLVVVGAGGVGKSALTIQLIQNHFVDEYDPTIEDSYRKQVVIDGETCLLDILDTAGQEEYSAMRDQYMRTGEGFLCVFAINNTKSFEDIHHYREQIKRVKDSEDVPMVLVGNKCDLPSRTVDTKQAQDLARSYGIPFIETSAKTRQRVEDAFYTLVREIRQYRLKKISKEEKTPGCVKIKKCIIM

Compound	percent labeling [1] [%]	percent labeling [2] [%]	percent labeling [3] [%]	percent labeling [4] [%]	percent labeling [5] [%]	percent labeling [6] [%]	percent labeling [7] [%]	percent labeling [8] [%]	percent labeling [9] [%]	percent labeling [10] [%]	percent labeling [11] [%]	percent labeling [12] [%]
NS(=O)(=O)c1ccc(C(=O)NCCS)cc1	31.1	23.6	35.2	32.6	36.1	30.7	50.5	46.1	29.3	36	34.1	52.7
O=C(CC1NC(=O)N(c2ccc(F)cc2)C1=O)NCCS (centres undefined)	45.5	15.1	36.3	31	35.3	34.4	32.6	41.8	28.1	36	37.8	33.4
CCCN(CC(=O)Nc1ccccc1OC)C(=O)CCS		11.2	35.7	30.9	32.6	34.6	36		26.2	36	29.7	52
Cn1c(C(F)(F)F)nc2cc(C(=O)NCCS)ccc21	15.5	8.7	16.1	14.3	18.8	14	31.3	35	15.1	13.4	12.2	23.7
O=C(CCS)Nc1nnc(-c2ccccc2)s1		8.2	7.8	19.3	9.4	9.7	48.8		3.2	16.7	9.4	23.2
O=C(CCS)NCc1ccc(Oc2ccccc2)nc1		12.2	37.8	37.2	33.3	67.1	27.4		30.5	29.7	28.4	45.8
O=C(NCCS)c1csc(-c2cnn(-c3ccccc3)n2)n1	14.5	13.6	8.9	5.8	6	0	28.5	18.4	0	0	0	6.4
Cc1ccc(-n2nc(C)c(C(=O)NCCS)n2)c(C)c1	33	8.7	12.1	16.3	16.3	9	36.4	23	12.7	19.5	11.9	33.1
CCc1c(C)nn(-c2cccc(C(=O)NCCS)c2)c1C	26.8	14.7	19.6	12.7	20.2	14.7	39.3	34.2	9.6	15.6	12	27.3
Cc1nccn1-c1cc(C(=O)NCCS)ccn1	39.8	15.9	35	19.7	24.9	16.1	16.9	16.8	6.1	31.4	10.7	30.6
CN(CCCc1[nH]nc(N)c1C#N)C(=O)CCS		10.7	32.9	44.7	42.5	41.8	31.5		39.1	35.6	38.3	59.4
O=C(CCS)N1CC2(CC(C(F)F)=NO2)C1		11.8	26.6	34.5	22.6	27.7	13.5		12.8	33	33.3	42.4
Cc1nc2[nH]n(C)c(=O)c2c(C)c1CCC(=O)NCCS	35.4	11.8	26.7	25	27	27	10	30.1	21.3	25.5	22.7	29.6
Cn1nc(C(=O)NCCS)cc1C1CC1	41.2	27.4	41.6	30.7	48.8	37.2	49.9	43.5	32.7	33.9	37.2	54.3
COc1ccc2[nH]cc(CC(=O)NCCS)c2c1	32.5	15.5	21.6	8.8	30.8	21.6	30.9	25.9	11.2	17.8	14.1	27.3
CN(Cc1ccc(Cl)cc1Oc1ccc(Cl)cc1)C(=O)CCS		22.7	33.3	28.5	24.2	17	35.8		17.8	21.6	10.2	51.7
O=C(NCCS)c1cccnc1-n1cc(Br)cn1	52.7	13.7	34.2	29.5	39.9	33.7	35.7	34.6	22.1	30.5	22.9	43.8
O=C(NCCS)c1cnn(C2CCCOC2)c1C(F)(F)F (centres undefined)	37.3	16.3	35.4	24.7	31.8	33.7	36.1	38.4	32.7	32.5	32.1	44.7
O=C(NCCS)c1ccc2[nH]cnc2n1	44	33.4	45.3	31.9	51	38.2	62.9	48.9	39.6	34.3	34.8	50.7
COc1cc(NC(=O)CCS)c(OC)cc1CCNC(C)=O		12.3	45.8	30	32.6	33.2	26.3		18.2	27.5	31.3	70.4
O=C(CCc1ccccc1N1CCOCC1)NCCS	43.6	13.1	34.3	23.8	29.7	37.5	23.7	33.6	22.7	30.3	26	48.2
N#Cc1ccc(N2CCC(C(=O)NCCS)CC2)c(F)c1	17.4	4.7	12.8	14.5	15.7	13.4	19.7	29.9	4.4	12.3	8	14.1
O=C(CCS)NC1CCN(C2CCOCC2)CC1		12.4	29.8	53.6	24.3	43.2	19		25.8	31.9	28.7	52.7
O=C(Cc1cnccc1C(F)(F)F)NCCS	39.3	15.5	34.1	28.7	42.1	32.3	26.5	35.7	36.8	33	34.6	41.2
Cc1cccc(CC(=O)NCCS)c1Br	57.5	22.5	28.7	20.6	41	27.6	49.9	36	26.3	24.9	20.9	46.3
O=C(CCS)NC1CC(O)(C(F)(F)F)C1 (centres undefined)		10	27.7	31.4	20.8	27	15.7		13.9	33.7	36	40.2
O=C(CCS)NCCCc1cn[nH]c1C(F)(F)F		17.6	38.8	43.1	39.2	48	47.5		33.9	36.9	41.4	50.7
O=C(CCS)NC1CCc2ccccc2-n2ccnc21 (centres undefined)		20.6	43	52.6	52.3	46.9	39.1		32.9	39.6	34.7	85.8
COc1ccc2c(c1)CCN(C(=O)CCS)C2		17.2	20.1	22.5	17.5	22.5	42.6		21	22.6	22.9	41.1
O=C(CCS)NC1CC(N2CCOCC2)C1 (centres undefined)		16	24	35.3	24	28.7	11.8		18.1	32.2	31.3	45.6
